# Data: the supplement of paper PMC10441789
# This is one part of the list. Antibody binding of pooled human sera (four to six donors per pool; dilution not stated) to peptides of the Trypanosoma cruzi antigen TSSA on microarrays. Quantile-normalised fluorescence in arbitrary units, mean of duplicate arrays; higher = more binding. No active / inactive call. The uninfected pools are read here as the healthy donors of the same country. The strongest signals lie near the top of the scale (about 60,000).
# How the values were obtained:
# Assay in all cases: antibody binding signal (normalised fluorescence) (arbitrary fluorescence units); higher = stronger serum antibody binding to peptide
# [1] = system: pooled sera of chronic Chagas disease patients, Argentina
# Protocol: (§1)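 Microarray of 15-residue peptides over residues 30-55 of Trypanosoma cruzi TSSAII, each with 1 to 10 substitutions at naturally variable positions, probed with one serum pool per country.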
# [2] = system: pooled sera of chronic Chagas disease patients, Bolivia
# Protocol: as §1
# [3] = system: pooled sera of chronic Chagas disease patients, Brazil
# Protocol: as §1
# [4] = system: pooled sera of chronic Chagas disease patients, Colombia
# Protocol: as §1
# [5] = system: pooled sera of chronic Chagas disease patients, Mexico
# Protocol: as §1
# [6] = system: pooled sera of chronic Chagas disease patients, USA
# Protocol: as §1
# [7] = system: pooled sera of uninfected people, Argentina
# Protocol: as §1
# [8] = system: pooled sera of uninfected people, Bolivia
# Protocol: as §1
# [9] = system: pooled sera of uninfected people, Brazil
# Protocol: as §1
# [10] = system: pooled sera of uninfected people, Colombia
# Protocol: as §1
# [11] = system: pooled sera of uninfected people, Mexico
# Protocol: as §1
# [12] = system: pooled sera of uninfected people, USA
# Protocol: as §1
Sequence,antibody binding signal [1],antibody binding signal [2],antibody binding signal [3],antibody binding signal [4],antibody binding signal [5],antibody binding signal [6],antibody binding signal [7],antibody binding signal [8],antibody binding signal [9],antibody binding signal [10],antibody binding signal [11],antibody binding signal [12]
ISTPPSGKDNKAAAG,18100,1290,2240,304,23800,1900,336,286,112,152,86.6,163
TPPSGTDKKPATGEA,37700,37700,46500,9780,51400,16800,817,444,547,375,4850,482
KENKAAAGGAPSQSG,156,258,312,775,173,263,246,92.5,102,93.4,83.2,115
ISTPPSGKENKAATG,13400,3250,8340,818,3060,2950,2480,1180,159,682,148,603
ISTPPSGKEKKPAAG,15900,219,3700,452,21500,408,680,331,144,357,102,297
DNKTATGETPSQPGA,1820,4140,32400,297,173,6170,150,720,322,235,262,259
STPPSGTDKKTAAGG,39300,8790,33700,4980,46400,7890,715,177,213,180,584,246
PSGKDKKAAAGEAPS,3830,894,3080,7020,5990,8600,172,386,78.7,107,85.5,85.2
PSGTDNKAAAGEAPS,18800,11400,44400,838,400,8490,148,689,1160,226,193,175
STPPSGTENKTATGG,51600,47300,54000,454,6780,34600,3400,657,595,592,654,523
GKDKKAATGEAPSQS,12800,5260,18000,1670,1480,18300,217,137,290,261,81.4,384
GKDNKTAAGGAPSPP,519,191,368,3550,1200,1320,177,144,105,160,83.7,138
KTATGETPSQPGASS,2130,4060,33500,253,303,4890,182,1600,369,179,226,241
SGKENKAAAGGAPSQ,3610,883,19700,8540,4650,21700,5650,1260,126,246,203,146
KEKKTAAGGTPSQPG,221,203,229,3180,157,1500,238,88.7,226,178,178,113
KTAAGETPSQPGASS,781,1660,30300,181,466,555,162,1360,158,242,232,207
PSGTDKKAAAGGTPS,1430,287,3800,9460,2600,2310,161,358,799,223,462,223
GKEKKAATGETPSQS,13400,1070,8530,7340,9730,10500,342,117,97.5,215,107,109
TPPSGTDNKTATGEA,22100,26800,40200,380,4420,8700,414,405,405,175,117,124
KDKKPAAGGTPSPPG,153,198,154,1350,152,338,117,89.6,577,112,75,95.2
